Results taken from PMC11832431 (MedComm, 2025).
These are yes or no findings as the source states them, for the method shown. For some assays here: Binding seen in cells or lysates may run through a third protein. Some results given as binding are weak or reduced against the parent protein; the word gives no strength. For some assays here: Tags and fused reporters may be left off the sequences shown. One block for each molecule: values may come before it.

Amino acid sequences for entries named in this document (tags omitted).
UniProt Q00534: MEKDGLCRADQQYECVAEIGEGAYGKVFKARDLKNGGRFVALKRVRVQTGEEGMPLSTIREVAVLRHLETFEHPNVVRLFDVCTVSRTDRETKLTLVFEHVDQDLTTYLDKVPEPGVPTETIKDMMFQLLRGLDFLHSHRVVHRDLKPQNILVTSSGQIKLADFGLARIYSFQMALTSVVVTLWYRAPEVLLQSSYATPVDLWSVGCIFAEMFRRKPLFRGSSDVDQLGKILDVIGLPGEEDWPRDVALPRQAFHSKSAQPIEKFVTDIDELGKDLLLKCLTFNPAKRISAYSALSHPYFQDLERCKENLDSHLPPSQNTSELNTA
UniProt P11802: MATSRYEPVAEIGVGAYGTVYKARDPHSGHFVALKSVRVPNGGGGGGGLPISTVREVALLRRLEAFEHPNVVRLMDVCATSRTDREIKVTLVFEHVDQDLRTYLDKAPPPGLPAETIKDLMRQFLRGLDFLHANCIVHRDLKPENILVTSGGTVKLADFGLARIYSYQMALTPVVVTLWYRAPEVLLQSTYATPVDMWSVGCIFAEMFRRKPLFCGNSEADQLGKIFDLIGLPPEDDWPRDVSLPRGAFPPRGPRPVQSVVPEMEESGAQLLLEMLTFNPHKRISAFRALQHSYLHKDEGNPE

Key:
[1] = target: GST-CDK6 (cyclin-dependent kinase 6) (UniProt Q00534); experiment: pull-down; purified recombinant GST or GST fusion protein incubated in vitro (cell-free) with purified recombinant His-tagged protein; blot and Coomassie blue staining; both purified
[2] = target: GST-CDK4 (cyclin-dependent kinase 4) (UniProt P11802); experiment: as above
[3] = target: T1, GST-DUB3 (deubiquitinating enzyme 3), wild type (UniProt Q6R6M4); experiment: as above
T1 sequence: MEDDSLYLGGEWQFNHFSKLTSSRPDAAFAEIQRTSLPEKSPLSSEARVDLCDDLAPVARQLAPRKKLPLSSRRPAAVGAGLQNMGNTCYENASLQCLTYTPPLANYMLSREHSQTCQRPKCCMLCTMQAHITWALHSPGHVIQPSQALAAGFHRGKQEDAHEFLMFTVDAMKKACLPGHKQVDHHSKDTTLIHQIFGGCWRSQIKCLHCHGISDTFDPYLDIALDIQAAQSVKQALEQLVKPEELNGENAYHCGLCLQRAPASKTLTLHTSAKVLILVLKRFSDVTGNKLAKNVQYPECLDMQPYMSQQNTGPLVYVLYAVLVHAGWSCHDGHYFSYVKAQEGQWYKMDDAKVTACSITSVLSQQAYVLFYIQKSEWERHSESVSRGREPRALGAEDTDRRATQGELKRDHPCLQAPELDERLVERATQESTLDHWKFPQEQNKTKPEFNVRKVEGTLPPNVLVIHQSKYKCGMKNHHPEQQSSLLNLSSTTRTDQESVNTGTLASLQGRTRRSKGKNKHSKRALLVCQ

[4] = target: T2, deubiquitinating enzyme 3 (DUB3), endogenous (human (endogenous in HCT 116 and LoVo)) (UniProt Q6R6M4); experiment: co-IP; endogenous proteins; HCT 116 and LoVo cell lysates immunoprecipitated with IgG, anti-YAP1 or anti-DUB3 antibodies; western blotting
T2 sequence: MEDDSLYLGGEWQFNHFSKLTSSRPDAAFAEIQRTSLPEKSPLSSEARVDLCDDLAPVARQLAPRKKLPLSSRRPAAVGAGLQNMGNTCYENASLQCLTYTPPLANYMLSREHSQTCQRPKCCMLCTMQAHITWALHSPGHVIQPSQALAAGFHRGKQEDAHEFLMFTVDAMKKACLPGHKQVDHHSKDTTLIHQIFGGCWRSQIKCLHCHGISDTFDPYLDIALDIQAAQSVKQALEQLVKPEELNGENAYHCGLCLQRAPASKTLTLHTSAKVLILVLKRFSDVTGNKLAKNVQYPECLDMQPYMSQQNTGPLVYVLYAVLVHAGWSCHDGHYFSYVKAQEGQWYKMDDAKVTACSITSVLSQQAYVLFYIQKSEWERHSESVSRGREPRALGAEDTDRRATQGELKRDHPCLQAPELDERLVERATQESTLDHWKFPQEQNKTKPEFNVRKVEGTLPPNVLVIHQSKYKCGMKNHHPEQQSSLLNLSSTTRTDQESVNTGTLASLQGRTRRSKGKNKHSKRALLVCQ

[5] = target: Yes-associated protein 1 (YAP1), endogenous (human (endogenous in HCT 116 and LoVo)) (UniProt P46937); experiment: as above

binding [1]: no binding
binding [2]: no binding
binding [3]: binds
Molecule: His-YAP1 (Yes-associated protein 1) (from UniProt P46937 1-504)

binding [4]: binds
Molecule: cyclin-dependent kinase 6 (CDK6), endogenous (from UniProt Q00534 1-326) (enzyme)

binding [5]: binds
B1: deubiquitinating enzyme 3 (DUB3), endogenous (enzyme, UniProt Q6R6M4 1-530)
chain: MEDDSLYLGGEWQFNHFSKLTSSRPDAAFAEIQRTSLPEKSPLSSEARVDLCDDLAPVARQLAPRKKLPLSSRRPAAVGAGLQNMGNTCYENASLQCLTYTPPLANYMLSREHSQTCQRPKCCMLCTMQAHITWALHSPGHVIQPSQALAAGFHRGKQEDAHEFLMFTVDAMKKACLPGHKQVDHHSKDTTLIHQIFGGCWRSQIKCLHCHGISDTFDPYLDIALDIQAAQSVKQALEQLVKPEELNGENAYHCGLCLQRAPASKTLTLHTSAKVLILVLKRFSDVTGNKLAKNVQYPECLDMQPYMSQQNTGPLVYVLYAVLVHAGWSCHDGHYFSYVKAQEGQWYKMDDAKVTACSITSVLSQQAYVLFYIQKSEWERHSESVSRGREPRALGAEDTDRRATQGELKRDHPCLQAPELDERLVERATQESTLDHWKFPQEQNKTKPEFNVRKVEGTLPPNVLVIHQSKYKCGMKNHHPEQQSSLLNLSSTTRTDQESVNTGTLASLQGRTRRSKGKNKHSKRALLVCQ
